Experimental data as given in PMC4336329 (PLoS ONE, 2015).
The campaign covered roughly 310,000 compounds. About 14,000 (4.5%) showed an effect of 50% or more. The effect is printed as a negative number. Some of the results follow.

These compounds were tested against human ether-à-go-go-related gene (hERG) potassium channel (human, UniProt Q12809) (assay: primary screen, population patch clamp on CHO cells stably expressing hERG).
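Also: peak tail current of the secondary pulse compared with the same well before compound.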

Chain of human ether-à-go-go-related gene (hERG) potassium channel (Q12809 whole entry, looked up): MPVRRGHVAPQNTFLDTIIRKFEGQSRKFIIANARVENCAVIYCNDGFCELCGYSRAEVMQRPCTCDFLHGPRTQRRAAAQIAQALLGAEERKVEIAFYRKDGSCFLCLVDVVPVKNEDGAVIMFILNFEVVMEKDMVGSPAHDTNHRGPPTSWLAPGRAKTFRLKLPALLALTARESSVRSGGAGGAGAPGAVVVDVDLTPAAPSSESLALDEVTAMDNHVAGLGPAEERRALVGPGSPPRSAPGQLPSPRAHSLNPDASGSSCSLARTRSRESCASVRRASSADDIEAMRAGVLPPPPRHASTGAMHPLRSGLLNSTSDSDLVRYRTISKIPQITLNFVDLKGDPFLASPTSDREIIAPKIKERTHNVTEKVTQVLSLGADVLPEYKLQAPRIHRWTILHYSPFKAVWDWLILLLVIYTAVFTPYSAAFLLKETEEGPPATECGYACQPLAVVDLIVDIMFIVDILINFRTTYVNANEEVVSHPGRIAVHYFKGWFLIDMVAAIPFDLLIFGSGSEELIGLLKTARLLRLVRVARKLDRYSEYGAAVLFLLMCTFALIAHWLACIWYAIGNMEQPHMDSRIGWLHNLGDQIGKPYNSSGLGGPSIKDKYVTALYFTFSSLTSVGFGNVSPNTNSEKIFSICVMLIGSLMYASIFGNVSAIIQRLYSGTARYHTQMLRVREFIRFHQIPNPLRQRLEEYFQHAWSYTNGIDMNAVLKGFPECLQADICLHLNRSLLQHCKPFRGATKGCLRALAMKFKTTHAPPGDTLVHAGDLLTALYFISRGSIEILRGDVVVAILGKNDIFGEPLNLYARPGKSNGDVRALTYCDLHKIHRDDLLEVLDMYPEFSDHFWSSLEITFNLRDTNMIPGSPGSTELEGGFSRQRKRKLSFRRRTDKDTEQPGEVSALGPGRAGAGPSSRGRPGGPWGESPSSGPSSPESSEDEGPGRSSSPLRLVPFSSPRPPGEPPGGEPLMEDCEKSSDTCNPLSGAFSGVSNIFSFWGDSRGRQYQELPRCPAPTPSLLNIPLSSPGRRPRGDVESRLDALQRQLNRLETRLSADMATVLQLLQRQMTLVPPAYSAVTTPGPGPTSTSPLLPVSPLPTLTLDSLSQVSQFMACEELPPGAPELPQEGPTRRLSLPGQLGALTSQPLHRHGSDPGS

Row | SMILES | hERG current change (%, negative = inhibition) at 10uM
1 | C=CCNC(=O)CC(=O)N/N=C/c1cccc(Br)c1 | 0.766%
2 | COC(=O)c1cc(OC)c(OC)cc1NC(=S)Nc1cccc(Cl)c1 | 7.26%
3 | O=C(NS(=O)(=O)Oc1ccc(Cl)cc1)OC[C@@H]1CCCN2CCCC[C@H]12 | 28.2%
4 | C=CCn1c(SCCN2CCOCC2)nc2c1c(=O)[nH]c(=O)n2C | 8.38%
5 | CCn1c(NCc2cccs2)nc2ccccc21 | -12.2%
6 | Cc1ccc(-c2cc(C(F)F)n3ncc(C(=O)Nc4ccc(S(=O)(=O)Nc5ccccc5C)cc4)c3n2)cc1 | 7.58%
7 | COc1ccc(-c2cc(C(=O)OCC(=O)NC3CC3)c3ccccc3n2)cc1 | 0.242%
8 | CCN(Cc1ccncc1)C(=O)CCc1nnc(CCC2CCCCC2)o1 | -24.9%
9 | Cc1cc(/C=C2/NC(=O)NC2=O)c(C)n1-c1ccc(N2CCOCC2)cc1 | 19.4%
10 | Cc1cc(C(=O)Nn2c(C3CCCCC3)nc3ccccc3c2=O)ccc1[N+](=O)[O-] | 4.23%
11 | NC(=O)C1CCN(c2ccc(S(=O)(=O)N3CCCCC3)cn2)CC1 | 13.6%
12 | COc1ccccc1CCC(=O)Nc1ccc(OC)c(S(=O)(=O)N2CCOCC2)c1 | 3.09%
13 | O=C(c1cc2ccccc2oc1=O)N1CCN(c2ccc(N3CCOCC3)nn2)CC1 | 5.28%
14 | Cl.O=C(CCN1CCCCC1)Nc1cccc(Br)c1 | -25.4%
15 | Cc1nn(C)c(Oc2ccccc2)c1CCNS(=O)(=O)c1ccc(Cl)cc1 | -30.3%
16 | CCn1cc(C(=O)O)c(=O)c2cnc(N3CCN(C(=S)Nc4ccccc4)CC3)nc21 | 2.24%
17 | COc1ccc(C2C=C(C)Nc3nc4ccccc4n32)cc1 (stereo not drawn) | -2.74%
18 | CCOc1ccc(NC(=O)c2cccs2)c([N+](=O)[O-])c1 | 2.08%
19 | Cn1cccc1CC(=O)N/N=C\c1cccs1 | 7.68%
20 | Cc1cc(/C=N\NC(=O)CC(=O)NC2CCCCC2)c(C)n1-c1ccc(Cl)c(Cl)c1 | 12.5%
21 | CCOC(=O)[C@H]1[C@H]2COc3ccc(Br)cc3[C@@H]2N2C(=O)CN(Cc3ccc(OC)cc3)C(=O)[C@@]12C | 12.1%
22 | CCCc1cc(=O)oc2cc(OCC(=O)N3C[C@H]4C[C@@H](C3)c3cccc(=O)n3C4)c(Cl)cc12 | -14.7%

Row | SMILES | hERG current change (%, negative = inhibition) at 10uM
23 | C=CCn1c(SCC(N)=O)nnc1-c1cccc(Br)c1 | -9.97%
24 | CCOC(=O)N1CCN(c2ccc(S(=O)(=O)N(Cc3ccccc3)Cc3ccccc3)cn2)CC1 | -4.41%
25 | CC(C)c1ccccc1NC(=O)c1ccc(CN(c2ccccc2)S(=O)(=O)c2ccccc2)cc1 | 21%
26 | O=C(c1ccc(CS(=O)Cc2ccc(Cl)cc2)o1)N1CCN(c2ccccc2)CC1 (stereo not drawn) | -51.8%
27 | COc1cc(NC(=O)CSc2nc3c(c(=O)[nH]2)CCCC3)cc(OC)c1OC | 8.11%
28 | CCOC(=O)C(CC)(CCC(=O)O)c1csc(N)n1 (stereo not drawn) | 16.7%
29 | CC1C2C(C)N(C)C(=O)N(C)C2N(C)C(=O)N1C (stereo not drawn) | 29.2%
30 | CN(CC(=O)Nc1ccc(Cl)cc1)CC(=O)Nc1ccc(C(N)=O)cc1 | 18.2%
31 | Cc1cccn2cc(-c3ccc(NC(=O)Cc4ccccc4)cc3)nc12 | 10.7%
32 | CC1CCCCN1CCNC(=O)C1CCCN(c2ncnc3c2nc2n3CCCCC2)C1 (stereo not drawn) | -14.3%
33 | Cn1c(NC(=O)c2ccccc2NC(=O)C(C)(C)C)nc2ccccc21 | -1.93%
34 | O=C(Nc1nc2ccc(Cl)cc2s1)c1ccc(Br)o1 | 4.25%
35 | COc1cc([C@@H]2CC=C(C(=O)O)CN2S(=O)(=O)c2ccc(C)cc2)cc(OC)c1OC | 17.8%
36 | CC1Nc2ncnc(N3CCN(c4ccccn4)CC3)c2N(Cc2ccccc2)C1=O.O=C(O)C(F)(F)F (stereo not drawn) | -19.8%
37 | N#Cc1ccc(C(=O)Nc2nc3ccccc3[nH]2)cc1 | 19%
38 | CN(C)/C=C1/C=C(C=O)OC1=O | 8.74%
39 | O=c1c2ccccc2oc2cc(NCCCN3CCOCC3)ccc12 | -29.7%
40 | O=C(N[C@@H](Cc1c[nH]c2ccccc12)C(=O)O)C1CCN(S(=O)(=O)c2cccs2)CC1 | 5.7%
41 | Cc1cc(C)cc(NC(=O)CN(C)CC(=O)N(CC(C)C)c2c(N)n(CC(C)C)c(=O)[nH]c2=O)c1 | 6.11%
42 | COc1ccnc(N2CCN(c3ccccc3)CC2)c1C#N | 4.21%
43 | CC1CCN(S(=O)(=O)c2ccc3ncn(CC(=O)N(C)Cc4ccccc4)c(=O)c3c2)CC1 | -61.7%
44 | Cn1c(=O)c(=O)n(C)c2cc(S(=O)(=O)N3CCN(c4cccc(C(F)(F)F)c4)CC3)ccc21 | -1.46%

Row | SMILES | hERG current change (%, negative = inhibition) at 10uM
45 | Br.Fc1ccc(-c2csc(NC3=NCCC3)n2)cc1 | -10.9%
46 | CCOc1ccc(OCC(=O)Nc2nccs2)cc1 | 19.8%
47 | O=C(N/N=C/c1cccnc1)c1ccccc1OCc1ccc(Cl)cc1 | -38.4%
48 | O=C(NCc1ccc2c(c1)OCO2)C1CCCN(S(=O)(=O)c2cccc3cccnc23)C1 (stereo not drawn) | -19.8%
49 | CCN(CC)C(=O)CN1C(=O)c2cccc3cccc1c23 | 4.55%
50 | CCOC(=O)c1c(-c2ccccc2)csc1NC(=O)CCN1C(=O)c2ccccc2C1=O | 4.17%
51 | CCOC(=O)C(NC(C)=O)C(OC(C)=O)c1cccc(N(CCO)CCO)c1 (stereo not drawn) | 18.4%
52 | CC1CCC2(CC1)NC(=O)N(CC(=O)NC(=O)NC1CCCC1)C2=O (stereo not drawn) | 5.53%
53 | Cc1oc(=O)c(NC(=O)c2ccccc2)cc1C(C)O (stereo not drawn) | 27.5%
54 | COc1ccc(C(C(=O)NC2CCCCC2)N(C(=O)c2ccco2)c2ccccc2OC)cc1 (stereo not drawn) | -1.82%
55 | CC(=O)N/C(=C/c1ccc2c(c1)OCO2)C(=O)Nc1ccccc1 | -2.13%
56 | O=C(CSCc1ccc(Cl)cc1)Nc1cccc(C(=O)Nc2ccccc2C(=O)O)c1 | 11.7%
57 | COc1ccc2ccccc2c1/C=N/NC(=O)c1ccc(C)nc1 | 15.4%
58 | O=C(NC1CCCN(Cc2ccc(Cl)cc2)C1)c1cccc(F)c1 (stereo not drawn) | -61.3%
59 | CCOc1cccc(OCCn2cnc3ccccc3c2=O)c1 | 5.84%
60 | CN1CC(=O)N2C(c3ccc(Cl)cc3)c3[nH]c4ccccc4c3C[C@H]2C1=O (stereo partly drawn) | -18.2%
61 | CCOC(=O)N1CCN(C(=O)c2ccc([N+](=O)[O-])cc2Cl)CC1 | -14.3%
62 | CCOP(=O)(OCC)C(O)c1ccccc1 (stereo not drawn) | 14.1%
63 | CCSc1nc(C2CC2)cc(-c2ccco2)c1C#N | 12.7%
64 | CCN(CC)CCNc1ncnc2c1sc1nc(N3CCOCC3)c3c(c12)CCCC3 | -32.8%
65 | O=C(NC(=S)Nc1ccccc1)c1cc([N+](=O)[O-])ccc1N1CCOCC1 | 6.13%
66 | Cc1nn(-c2ccccc2)nc1C(=O)Nc1ccc2c(c1)OCCO2 | 10.5%

Row | SMILES | hERG current change (%, negative = inhibition) at 10uM
67 | COc1cccc(NC(=O)CN(C)CC(=O)Nc2ccc3c(c2)CCC3)c1 | -3.03%
68 | CCCCn1c(N)c(NCC(C)C)c(=O)[nH]c1=O | 10.6%
69 | CCOC(=O)C1(CCOc2ccccc2)CCN(Cc2cccc3nonc23)CC1 | -28.6%
70 | O=C(COC(=O)c1cc(S(=O)(=O)N2CCOCC2)ccc1Cl)NCc1ccc2c(c1)OCO2 | -21.6%
71 | NS(=O)(=O)c1ccc(CCNC(=S)Nc2ccc(S(N)(=O)=O)cc2)cc1 | 9.69%
72 | Cc1ccc2nc(-c3ccsc3)c(NC3CCCC3)n2c1 | -0.637%
73 | Cc1ccccc1-c1nn2c(-c3ccccc3)nnc2s1 | 11.9%
74 | Cc1ccc2[nH]c(=O)c(CN(CCN3CCOCC3)C(=O)Nc3ccc(F)cc3)cc2c1 | -37%
75 | O=C(COC(=O)Cc1cccs1)NCC(=O)Nc1ccc(F)cc1 | -20.3%
76 | O=C1/C(=C\c2ccsc2)N2CCC1CC2 | 5.75%
77 | CC(C)NC(=O)COc1ncnc2sccc12 | 6.97%
78 | Cc1cccc2cc(CN(Cc3ccco3)S(=O)(=O)c3ccc4c(c3)OCCO4)c(=O)[nH]c12 | 12.3%
79 | CCOCCn1c(C(C)O)nc2ccccc21 (stereo not drawn) | 11.7%
80 | CCn1c(SCC(=O)Nc2cccc(NC(C)=O)c2)nnc1C(C)C | 5.73%
81 | O=C(CSc1nnc(-c2ccco2)o1)NCC(=O)c1ccccc1 | -4.72%
82 | COCCc1nc2ccc(C(=O)N3CCCC(CCCO)C3)cc2o1 (stereo not drawn) | 21.7%
83 | O=C(NCCCN1CCCC1=O)C(=O)NCC1OCCN1S(=O)(=O)c1ccc(Br)cc1 (stereo not drawn) | 6.2%
84 | CCN(CC(=O)NCc1cccs1)C(=O)c1ccc(OC)c(OC)c1 | 7.7%
85 | CN(C)CCNCc1ccccc1OC1CCCC1.Cl | -12.8%
86 | Cc1nc2c(nnn2Cc2c(Cl)cccc2Cl)c(=O)[nH]1 | 17.8%
87 | Cc1ccc(C(=O)CCC(=O)OC(C)C(=O)NC2CCCCC2C)cc1 (stereo not drawn) | 8.09%
